From PubChem BioAssay AID1345083 (National Center for Advancing Translational Sciences (NCATS), 2018)
The campaign covered roughly 94,000 compounds. About 6,200 (6.6%) were called active. This list was built around the results that the source calls inconclusive (neither active nor inactive); the mix of calls is not that of the screen. The call rests on the fitted dose curve; in most records, active means well fitted inhibition curve with a large enough effect; inconclusive means small, poorly fitted or top-dose-only effect; inactive means flat fitted curve, though single readings scatter. Where the call is inconclusive, the potency comes from a doubtful curve fit.

Assay: Cytotoxic Profiling in HEK 293 Cell Line of Diverse Libraries Using Quantitative High-Throughput Screening; further: nearly all actives have a fitted effect of over 60% in size
Details: HEK 293 viability, ATP luminescence (CellTiter-Glo), 48-72 h; series mostly up to 115 µM
Procedure, shortened: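 Cytotoxicity was scored by loss of ATP-coupled luminescence (CellTiter-Glo) in HEK 293 cells. Compound treatment ran 48 or 72 hr at 37 degree Celsius, 5% CO2, 95% humidity.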
Potency means the concentration at half of the fitted maximal effect; tags describe the fitted curve by direction and shape.

SMILES	Potency
Cc1oc(C2CCN(C(=O)CCC(=O)n3ncc4c(Cl)cccc43)CC2)nc1C(=O)N1CCOCC1	inactive
Cc1cc(NC(=O)Cn2cccc2-c2nc(-c3ccc4c(c3)OCO4)no2)n[nH]1	inconclusive: 44.7 µM [inhibitor, partial curve]
CC1=C[C@@H](CN2CCOCC2)[C@H](C(C)C)C[C@H]1Cc1nnc(-c2ccncc2)o1	inconclusive: 63.1 µM [inhibitor, partial curve, poor fit]
COc1ccc(-c2nc(CN3CCC(F)(F)CC3)c(C)o2)c(OC)c1C	inconclusive: 89.1 µM [inhibitor, single point]
Cc1nn(-c2ccc(C(F)(F)F)cc2)c(C)c1[C@@H]1C=C[C@@H](NC(=O)CCC(=O)O)C1	inconclusive: 79.4 µM [inhibitor, partial curve, poor fit]
COc1ccc(CNC(=O)C[C@@H]2C[C@H]3O[C@H](CN)[C@@H](O)[C@H]3O2)cc1	inactive
CC(C)N1C(=O)CO[C@H]2CCN(Cc3ccccn3)CC[C@@H]21	inconclusive: 126 µM [inhibitor, single point]
CC(C)CNC(=O)C1CCN(c2ccnc3ccnn23)CC1	inconclusive: 44.7 µM [inhibitor, partial curve, poor fit]
C#CCOc1ccc(C(=O)N[C@@H]2CN(Cc3cccc(OC)c3)CCC[C@H]2O)cc1	inconclusive: 56.2 µM [inhibitor, full curve]
Cc1ccc(CN2CCOc3cc([S+](=O)([O-])N(C)C)ccc3C2)c(F)c1	inconclusive: 79.4 µM [inhibitor, partial curve]
Cc1ccc(C(=O)N2CCC3(CC2)CC(=O)c2ccccc2O3)cc1	inconclusive: 89.1 µM [inhibitor, partial curve, poor fit]
O=C(c1ccc(F)cc1Cl)N1Cc2cnn(Cc3ccc(F)cc3)c2C1	inconclusive: 44.7 µM [inhibitor, partial curve, poor fit]
NC(=O)c1cccc(-c2ccc3c(n2)CN(Cc2nc4ccccc4s2)C(=O)CO3)c1	active: 79.4 µM
CN1C[C@@H](NC(=O)c2ccco2)C[C@H]1c1nc(-c2ccc(F)cc2)no1	inconclusive: 100 µM [inhibitor, partial curve]
COc1cccc(-c2noc(COC(=O)C3=CN(Cc4ccccc4)S(=O)(=O)N=C3C)n2)c1	inconclusive: 28.2 µM [inhibitor, full curve]
CC(=O)Oc1c(-c2ccc(NC(=O)c3ccco3)cc2)c(-c2cccc(C)c2)nn1-c1cccc(F)c1	inconclusive: 35.5 µM [inhibitor, partial curve]
CN(CCc1ccccc1)CCN1CC2(CCN(c3ncccc3C#N)CC2)OC1=O	active: 39.8 µM
COc1cc(-c2ccnc3nc(CC(C)C)nn23)cc(OC)c1OC	inconclusive: 44.7 µM [inhibitor, partial curve]
CC1CCC2(CC1)NC(=O)N(CC(=O)Nc1ccc(C(C)C)cc1)C2=O (stereo unspecified)	active: 28.2 µM
COc1ccc(NC(=O)c2nc3sccn3c2-c2cccc(OC)c2)cc1	inconclusive: 50.1 µM [inhibitor, partial curve, poor fit]
CN1CCCCCC(O)c2cc(C(=O)N3CCN(c4ccccn4)CC3)ccc21 (stereo unspecified)	inconclusive: 50.1 µM [inhibitor, partial curve, poor fit]

SMILES	Potency
O=C(NC1CCN(c2cc(-c3ccccc3)[nH]n2)CC1)c1cnccn1	inactive
CC1=C(C(=O)OC(C)C)C(c2ccc(C)cc2)N2C(CC(=O)N3CCCCC3)=CSC2=N1 (stereo unspecified)	inconclusive: 50.1 µM [inhibitor, partial curve, poor fit]
COc1ccc(NC(=O)c2c(C)oc3ccn(Cc4cccc(F)c4)c(=O)c23)cc1F	inconclusive: 31.6 µM [inhibitor, partial curve]
CC[C@@]1(O)CCN(c2nc(N)c3cc(OC)c(OC)cc3n2)C[C@H]1O	inconclusive: 17.8 µM [inhibitor, full curve, poor fit]
COc1ccc(-c2cc(C(=O)NCc3cnn(C)c3)c3c(c2)N(C)CCO3)cc1	inconclusive: 89.1 µM [inhibitor, partial curve, poor fit]
Cc1cn2nnc(C(=O)NCC(C)c3ccccc3)c2c(=O)[nH]1 (stereo unspecified)	inactive
O=C(Cc1ccc(F)cc1)N1CCC2(CC1)Cc1ccccc1NC2=O	inactive
O=C(c1ccc(F)c(Cl)c1)N1CCC(Cc2nc(-c3cnccn3)no2)CC1	inconclusive: 25.1 µM [inhibitor, partial curve, poor fit]
O=C(c1ccc(F)cc1)N1CCCC(c2nn(-c3ccccn3)c(=O)[nH]2)C1 (stereo unspecified)	inactive
O=C(NCc1ccc(F)cc1)C1CCCN(Cc2cccc(-c3ccsc3)c2)C1 (stereo unspecified)	inconclusive: 44.7 µM [inhibitor, partial curve, poor fit]
O=C(c1ccc(F)cc1)N1CCC2(CC1)COc1ccccc1NC2=O	inconclusive: 79.4 µM [inhibitor, partial curve, poor fit]
O=C(NCCCc1ccccc1)c1cc(-c2cccc(C(F)(F)F)c2)c2cccn2n1	inconclusive: 39.8 µM [inhibitor, partial curve]
O=C(NC[C@H]1O[C@H](Cc2cc(COc3ccccc3)on2)CC[C@@H]1O)Nc1cccc(F)c1	inconclusive: 50.1 µM [inhibitor, partial curve, poor fit]
O=C(NCc1ccc(F)cc1)c1nc2sccn2c1-c1ccncc1	inconclusive: 126 µM [inhibitor, single point]
CN1CCCCCCN(C(=O)CCc2ccccc2)[C@H]2CCC[C@H]2C1=O	inconclusive: 89.1 µM [inhibitor, single point]
OCc1ccc(CN2CCCC(CCc3c(F)cccc3F)C2)o1 (stereo unspecified)	inconclusive: 20 µM [inhibitor, full curve, poor fit]
O=C1NC2(CCCN(Cc3ccccc3)C2)Oc2ccccc21 (stereo unspecified)	inconclusive: 112 µM [inhibitor, partial curve, poor fit]
O=C(C1CC1)N1CCCN(Cc2ccc3c(c2)OCO3)c2ccccc21	inconclusive: 35.5 µM [inhibitor, partial curve, poor fit]
CC(C)c1noc(-c2cn(C3CCN(C(=O)COc4ccc(F)cc4)CC3)nn2)n1	inconclusive: 79.4 µM [inhibitor, partial curve, poor fit]
COc1cccc(-c2csc(CN3CCCC(C)(NC(C)=O)C3)c2)c1 (stereo unspecified)	inconclusive: 79.4 µM [inhibitor, partial curve]
O=C(C1CCOCC1)N1CCC(Oc2cnc3c(ccn3-c3cncnc3)c2)CC1	inconclusive: 112 µM [inhibitor, partial curve, poor fit]

SMILES	Potency
COc1ccc(-c2nc(-c3nnn4c3COC(c3ccccc3Cl)C4)no2)cc1OC (stereo unspecified)	inconclusive: 28.2 µM [inhibitor, full curve]
Cc1noc(C)c1[S+](=O)([O-])NC1CCN(Cc2ccc(-c3ccsc3)cc2)C1 (stereo unspecified)	active: 39.8 µM
Cc1noc(-c2ccccc2OC2CCNC2)n1 (stereo unspecified)	inactive
COc1ccc(C2=NOC3(CCN(C(=O)c4ccc(C)cc4)C3)C2)cc1 (stereo unspecified)	inconclusive: 50.1 µM [inhibitor, partial curve, poor fit]
Cc1cnc(C2CC2)n1CC1CCN(C(=O)C(C)C)CC1	inactive
O=C(O)Cn1ccc2cc(OCCc3cccc(-c4ccc(F)cc4)c3)cnc21	inconclusive: 100 µM [inhibitor, partial curve]
COc1ccc(C(=O)N2CCC3(CC2)NC(=O)N(c2ccc(F)cc2)N3)cc1F	inconclusive: 31.6 µM [inhibitor, full curve, poor fit]
CC1(COc2ccccc2)COc2ccc(C(=O)NCCc3cnc[nH]3)cc2N1 (stereo unspecified)	inconclusive: 112 µM [inhibitor, partial curve, poor fit]
COc1ccc(S(=O)(=O)N2CCC3(CC2)CC(N(C)Cc2ccccc2)CCO3)cc1 (stereo unspecified)	inconclusive: 35.5 µM [inhibitor, partial curve]
O=C1COc2ccc(-c3ccccc3)nc2CN1Cc1ccc(F)cc1	inconclusive: 100 µM [inhibitor, partial curve, poor fit]
O=C(Nc1ccnn1C1CCN(CCO)CC1)c1ccccc1Cl	inconclusive: 39.8 µM [inhibitor, single point]
COc1ccc(CN2C=C(C(=O)O)C(C)=NS2(=O)=O)cc1F	inactive
O=C(c1n[nH]c2c1CCCC2)N1CCCC2(C1)Nc1cccnc1NC2=NC1CCCC1 (stereo unspecified)	inactive
Cc1cccc(S(=O)(=O)N2CCc3c(C(=O)NCCCN4CCCCC4)cccc32)c1	inconclusive: 50.1 µM [inhibitor, partial curve, poor fit]
COc1ccc(C(=O)NC[C@@H]2C=C(C)[C@H](Cc3nnc(-c4cncn4C)o3)C[C@H]2C(C)C)cc1	inconclusive: 50.1 µM [inhibitor, partial curve, poor fit]
O=C(NCC1CN(C(=O)Cc2ccc(OC(F)(F)F)cc2)CC12CN(c1ccccc1)C2)Nc1ccccc1 (stereo unspecified)	inconclusive: 28.2 µM [inhibitor, full curve, poor fit]
COCCOc1cc(C)c2c(c1C)C[C@H](C(C)C(=O)NCc1cccs1)CC2 (stereo partly specified)	active: 50.1 µM
Cc1ccccc1Oc1ncccc1CNCc1cccc(O)c1	inconclusive: 89.1 µM [inhibitor, single point]
CC(C)c1cccc(C(C)C)c1NC(=O)N1CCc2c(c3cc(F)ccc3n2C)C1	inconclusive: 44.7 µM [inhibitor, partial curve, poor fit]
